The results in this text go back to ChEMBL document CHEMBL4888484, “Replenishing the malaria drug discovery pipeline: Screening and hit evaluation of the MMV Hit Generation Library 1 (HGL1) against asexual blood stage Plasmodium falciparum ,using a nano luciferase reporter read-out” (2022).

The whole screen tested about 150,000 compounds, of which about 540 (0.36%) showed an effect of 50% or more. This is one part of the list.

This assay has as its system Plasmodium falciparum. As to the kind of experiment: Primary screen in NF54 nanoGlo assay, in single point, at 2uM, 72h; a lower Z score goes with more inhibition. To be noted: timepoint 72 hour. It is filed as functional, Erythrocyte.
On to `CCOc1ccc(NC(=O)[C@@H]2CN(S(C)(=O)=O)c3cc(C)ccc3O2)cc1`, for which the “% Inhibition” value is recorded as -9% and the Z score came to 1.14.

Turning to `C=CCn1c(C)c(CC(=O)Nc2cccc(Cl)c2C)c(=O)n2nc(-c3ccc(C)cc3)nc12`, the “% Inhibition” value is given as -9% and the Z score is reported as 0.92.

For `O=C(Nc1ccc(N2CCC(N3CCCCC3)CC2)cc1C(=O)O)c1cccc(Cl)c1`, the “% Inhibition” value is given as -10% and the Z score came to 1.47.

Take `COc1ccccc1N1CCN(C(=O)c2cnc(N3CCN(C)CC3)nc2C)CC1`: the “% Inhibition” value was -2% and the Z score was 0.37.

Regarding `CCOC(=O)c1cn(Cc2ncc(CC)o2)c2nc(C)ccc2c1=O`, the “% Inhibition” value is listed as -5% and the Z score worked out at 0.42.

With `CN1CC(NC(=O)C2COCC(=O)N2Cc2ccccc2)CC1=O` (stereo unspecified), the “% Inhibition” value is recorded as -3% and the Z score was found to be 0.3.

`O=c1c2ccccc2nnn1CN1CCN(c2ccccn2)CC1`: the “% Inhibition” value was -4% and the Z score is reported as 0.55.

Consider `CCn1nc(C(=O)N2CCC(Cc3ccccc3)CC2)c2c1CCOC2`, for which the “% Inhibition” value is on record as 1% and the Z score is -0.16.

As to `Cc1ccc(-c2c(S(=O)(=O)c3ccccc3)cnc3cc(-c4ccc(Br)cc4)nn23)cc1`, the “% Inhibition” value was 0% and the Z score was 0.05.

Consider `COc1ccc(CCc2nc(N)n[nH]2)cc1`, for which the “% Inhibition” value is recorded as -12% and the Z score was found to be 1.49.

In the case of `CC(=O)NCc1nc2c(n1C)CN(C(=O)CCCc1ccccc1)CC2`, the “% Inhibition” value is on record as -5% and the Z score worked out at 0.52.

With `O=C([C@H]1CC(=O)N(C2CCCC2)C1)N1CC2(CCOC2)C1`, the “% Inhibition” value is recorded as -3% and the Z score is 0.6.

For the molecule `CC1(C)CC(=O)c2cn(-c3ccccc3)c(=O)c(C(=O)N3CCOCC3)c2C1`, the “% Inhibition” value was determined as 5% and the Z score is -0.61.

Consider `c1csc(-c2noc(-c3ccnn3C3CCCC3)n2)c1`, for which the “% Inhibition” value is 0% and the Z score came out at 0.07.

Regarding `CC1(C)CN(C(=O)CCn2ccnn2)CC[C@H]1C(F)(F)F`, the “% Inhibition” value is reported as -8% and the Z score worked out at 1.72.

With `Cc1cc(=O)[nH]c(CCn2ccnc2-c2coc(-c3ccccc3)n2)n1`, the “% Inhibition” value is on record as 4% and the Z score is -0.57.

In the case of `Cc1ccc(-c2cccc(C(=O)N3CC[C@](C)(O)[C@H](O)C3)c2)o1`, the “% Inhibition” value is -1% and the Z score is reported as 0.22.

`Cc1ccc(-c2noc(-c3ccccc3S(=O)(=O)N3CCC(C)CC3)n2)cc1`: the “% Inhibition” value is -1% and the Z score is reported as 0.11.

Consider `C[C@@H](Cc1cc2ccccc2o1)NC(=O)c1ccc2c(c1)OCO2`, for which the “% Inhibition” value is on record as -14% and the Z score stood at 2.45.

Take `C[C@](O)(Cc1nc(-c2ccnc(-n3cccn3)c2)no1)C1CC1`: the “% Inhibition” value was determined as 0% and the Z score turned out to be 0.07.

As to `Cn1cccc1S(=O)(=O)N1CC2C(C1)C2(C)C` (stereo unspecified), the “% Inhibition” value stood at 0% and the Z score was -0.02.

On to `CN(Cc1ccccc1)[C@H]1[C@H](O)[C@H](CO)O[C@@H]1CNC1CCCCC1`, for which the “% Inhibition” value was 5% and the Z score is on record as -0.63.

`COC(=O)c1[nH]c(C)c(CN(C)C(=O)c2c(F)cccc2Cl)c1C`: the “% Inhibition” value is on record as -5% and the Z score is listed as 0.67.

The % Inhibition is the change of the read-out against control, counted positive when it falls.
